Each block holds one binder with its values, some of them ahead of it.
Key:
[1] = molecular target: T1, MD-2 (myeloid differentiation protein-2) (UniProt Q9Y6Y9 19-160, limits assumed); test: SPR (BIAcore 3000), TOY8 amine-coupled on CM5 chip, MD-2 8-250 nM as analyte, 1:1 Langmuir model, 25 C
T1 sequence (looked up): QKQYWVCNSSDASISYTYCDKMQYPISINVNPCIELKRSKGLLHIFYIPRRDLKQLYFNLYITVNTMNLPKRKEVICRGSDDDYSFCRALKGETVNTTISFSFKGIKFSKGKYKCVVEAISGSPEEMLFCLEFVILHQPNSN
Description: (§1) The interactions for binding between TFL and MD-2, between TOY3 and MD-2, and between TOY8 and MD-2 were analyzed with BIAcore 3000 (BIAcore AB, Uppsala, Sweden). TFL, TOY3 or TOY8 (30 μg/ml) in 10 mM sodium acetate (pH 5.5) was immobilized on a CM5 sensor chip using the amine-coupling method. MD-2 in HBS-EP buffer (BIAcore AB) at a concentration of 8 nM to 250 nM was passed over the surface of the sensor chip at a flow rate of 60 μl/min. The interactions were monitored as the changes of surface plasmon resonance response at 25° C. After 1 min of monitoring, the same buffer was introduced onto the sensor chip in place of the MD-2 solution to start the dissociation. The sensor surface was regenerated with 10 mM Glycine (pH 2.3) at the end of each experiment. Both the association rate constant (kₐ) and the dissociation rate constant (kd) were calculated according to the BIAevaluation software (version 3.1; BIAcore AB) using a program named 1:1 (Langmuir) binding model. The dissociation constant (KD) was determined by kₐ/kd.

[2] = molecular target: T1, MD-2 (myeloid differentiation protein-2); test: SPR (BIAcore 3000): TOY8 amine-coupled on a CM5 chip, MD-2 at 8 to 250 nM as analyte, 25 C, 1:1 Langmuir fit
Description: as §1

[3] = molecular target: T1, MD-2 (myeloid differentiation protein-2); test: SPR (BIAcore 3000): TOY3 amine-coupled on a CM5 chip, MD-2 at 8 to 250 nM as analyte, 25 C, 1:1 Langmuir fit
Description: as §1

[4] = molecular target: T1, MD-2 (myeloid differentiation protein-2); test: SPR (BIAcore 3000), TOY3 amine-coupled on CM5 chip, MD-2 8-250 nM as analyte, 1:1 Langmuir model, 25 C
Description: as §1

Kd [1]: ~56 nM | koff [2]: 0.00177 s⁻¹ | kon [2]: 31500 M⁻¹ s⁻¹
B1: TOY8 (Fc fusion)
chain: ADPEPCVEVVPNITYQCMELNFYKIPDNLPFSTKNLDLSFNPLRHLGSYSFFSFPELQVLDLSRCEIQTIEDGAYQSLSHLSTLILTGNPIQSLALGAFSGLSSLQKLVAVETNLASLENFPIGHLKTLKELNVAHNLIQSFKLPEYFSNLTNLEHLDLSSNKIQSIYCTDLRVLHQMPLLNLSLDLSLNPMNFIQPGAFKEIRLHKLTLRNNFDSLNVMKTCIQGLAGLEVHRLVLGEFRNEGNLEKFDKSALEGLCNLTIEEFRLAYLDYYLDDIIDLFNCLTNVSSFSLVSVTIERVKDFSYNFGWQHLELVNCKFGQFPTLKLKSLKRLTFTSNKGGNAFSEVDLPSLEFLDLSRNGLSFKGCCSQSDFGTTSLKYLDLSFNGVITMSSNFLGLEQLEHLDFQHSNLKQMSEFSVFLSLRNLIYLDISHTHTRVAFNGIFNGLSSLEVLKMAGNSFQENFLPDIFTELRNLTFLDLSQCQLEQLSPTAFNSLSSLQVLNMASNQLKSVPDGIFDRLTSLQKIWLHTNPWDCSCPRIDYLSRWLNKNSQKEQGSAKCSGSGKPVRSIICPTLE[human IgG1 Fc cut from this listing]
notes: also called TLR4 decoy receptor protein 8; CHO-TOY8 product

Kd [3]: 76.1 nM | koff [3]: 0.00188 s⁻¹ | kon [3]: 24700 M⁻¹ s⁻¹ | Kd [4]: ~76 nM
B2: TOY3 (Fc fusion)
chain: ADPEPCVEVVPNITYQCMELNFYKIPDNLPFSTKNLDLSFNPLRHLGSYSFFSFPELQVLDLSRCEIQTIEDGAYQSLSHLSTLILTGNPIQSLALGAFSGLSSLQKLVAVETNLASLENFPIGHLKTLKELNVAHNLIQSFKLPEYFSNLTNLEHLDLSSNKIQSIYCTDLRVLHQMPLLNLSLDLSLNPMNFIQPGAFKEIRLKELALDTNQLKSVPDGIFDRLTSLQKIWLHTNPWDCSCPRIDYLSRWLNKNSQKEQGSAKCSGSGKPVRSIICPTLE[human IgG1 Fc cut from this listing]
notes: Bears only the A patch of TLR4; also called TLR4 decoy receptor protein 3; CHO-TOY3 product

From patent publication US20090312249A1 (KOREA ADVANCED INSTITUTE OF SCIENCE AND TECHNOLOGY, published 2009)
